Test results reported in PubChem BioAssay AID485344 (National Center for Advancing Translational Sciences (NCATS), 2010).
In all, about 340,000 compounds went through this assay and about 6,900 (2%) were called active. No stated cut-off is given here; in the data, active means inhibition above about 30%; inactive means below that, where a call was filed. Only a part is listed here, and it is no random draw. Where no call is shown, the source filed none.

Biological target: D(2) dopamine receptor (Homo sapiens) (UniProt P14416)
Chain of UniProt P14416 (P14416 whole entry, looked up): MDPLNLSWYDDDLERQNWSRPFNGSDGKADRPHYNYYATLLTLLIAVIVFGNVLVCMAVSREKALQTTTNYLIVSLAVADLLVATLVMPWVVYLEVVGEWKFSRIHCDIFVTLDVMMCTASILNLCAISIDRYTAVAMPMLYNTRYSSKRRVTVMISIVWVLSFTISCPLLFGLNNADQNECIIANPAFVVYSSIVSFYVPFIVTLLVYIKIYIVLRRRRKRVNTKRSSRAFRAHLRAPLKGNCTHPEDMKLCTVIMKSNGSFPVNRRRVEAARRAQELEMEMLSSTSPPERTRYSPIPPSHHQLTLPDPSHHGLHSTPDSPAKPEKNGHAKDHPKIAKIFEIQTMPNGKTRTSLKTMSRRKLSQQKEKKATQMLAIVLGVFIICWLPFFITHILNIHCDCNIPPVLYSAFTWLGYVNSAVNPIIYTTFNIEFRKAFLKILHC
Experiment: HTS Assay for Allosteric Antagonists of the Human D2 Dopamine Receptor: Primary Screen for Antagonists; further: 0% is about no effect
Details: HEK293 TREx D2 cells, calcium flux, dopamine EC80; at 10 µM; stronger effect = higher value
Summary of the method: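 Overnight-induced (tetracycline, 30 C) HEK293 T-REx cells carrying force-coupled D2 receive a no-wash calcium dye, then compound, then EC80 dopamine at 180 s; signals are read kinetically throughout.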

`Clc1ccccc1Nc1ncnc2c1nc1n2CCCCC1` was tested. Which inhibition did it give?
The inhibition was 8.5%.

With `O=C(Nc1ccc2nc(SCCOc3ccccc3)sc2c1)c1ccc2c(c1)OCO2` as the molecule, how does the inhibition read?
The inhibition was -20.4%.

How did the inhibition turn out when `Cc1ccc(-n2cnc3cc(C(=O)NCc4ccccc4Cl)ccc32)c(C)c1` was run?
The inhibition was 17.1%.

How did the inhibition turn out when `Cc1ccc2nc(N3CCN(c4ccccc4F)CC3)c3nnnn3c2c1` was run?
Its inhibition is 3.43%.

`Cc1nc(-n2nc(C)c(Cc3ccc4c(c3)OCO4)c2C)sc1C(=O)Nc1ccc(Cl)cc1` was tested. Which inhibition did it give?
The inhibition was -1.74%.

`CCCOc1cccc(C2c3c(oc4ccc(F)cc4c3=O)C(=O)N2Cc2ccc3c(c2)OCO3)c1` (stereo not drawn) was tested. Which inhibition did it give?
Its inhibition is -5.39%.

How did the inhibition turn out when `Cc1cccc(Cn2cccc2CNS(=O)(=O)c2ccc(C)c(C)c2)c1` was run?
Its inhibition is 11.2%.

With `O=C(c1ccco1)n1nc(-c2ccc(Cl)cc2)nc1NCc1ccc(F)cc1` as the molecule, how does the inhibition read?
Its inhibition is -7.43%.

Which inhibition does the source give for `CN1CCSc2ccc(C(=O)NCc3ccccc3)cc21` here?
The inhibition was -7.57%.

For `CCCCN(Cc1ccco1)C(=O)Cn1ncc2c([nH]c3ccccc32)c1=O`, which inhibition is on record?
Its inhibition is -6.56%.

With `CCc1ccccc1NC(=O)C1CCCN(c2cnccn2)C1` (stereo not drawn) as the molecule, how does the inhibition read?
The inhibition was 5.57%.

`CN1/C(=C\C(=O)c2cccnc2)C(C)(C)c2ccccc21` was tested. Which inhibition did it give?
Its inhibition is active: 32.3%.

How did the inhibition turn out when `Cc1ccc(NC(=O)CSc2nc(=O)cc(N)n2CCc2ccccc2)cc1` was run?
The inhibition was 1.73%.

For `O=C(Nc1cccc(NC(=O)c2ccccc2Cl)c1)c1cccc(Br)c1`, which inhibition is on record?
Its inhibition is -3.7%.

For `COc1ccc(C(CNC(=O)COc2cc(C)cc(C)c2)N2CCOCC2)cc1` (stereo not drawn), which inhibition is on record?
Its inhibition is -0.298%.

Which inhibition does the source give for `CC(Sc1oc(-c2cccs2)nc1S(=O)(=O)c1ccccc1)c1ccccc1` (stereo not drawn) here?
The inhibition was -3.54%.

How did the inhibition turn out when `Cn1nccc1C(=O)NCc1ccc2c(c1)CCN2C(=O)c1ccc(Cl)cc1` was run?
Its inhibition is 14.5%.

For `Cc1c(C(=O)Nc2ccc(F)cc2F)sc2nc3n(c(=O)c12)N=C(c1ccccc1)CS3`, which inhibition is on record?
The inhibition was -3.83%.

`CCCCOc1ccc(Cn2c(=O)sc3ccccc32)cc1` was tested. Which inhibition did it give?
Its inhibition is -8.95%.

With `COc1ccc(N2CCN(c3csc4ccccc4c3=O)CC2)cc1` as the molecule, how does the inhibition read?
The inhibition was -2%.

Which inhibition does the source give for `CCc1ccc(NC(=O)c2nn(-c3ccc(OC)cc3)c(=O)c3c2c2ccccc2n3C)cc1` here?
Its inhibition is -9.8%.

`CCc1ccc(Oc2c(C(F)(F)F)oc3c(CN4CCCC(C)C4)c(O)ccc3c2=O)cc1` (stereo not drawn) was tested. Which inhibition did it give?
Its inhibition is 3.72%.

`CC(CNC(=O)CCS(=O)(=O)c1cc2c(cc1Cl)NC(=O)CO2)c1ccccc1` (stereo not drawn) was tested. Which inhibition did it give?
Its inhibition is 3.38%.

For `CCOC(=O)c1ccccc1NC(=O)CCc1nc(-c2ccc(C)cc2)no1`, which inhibition is on record?
The inhibition was 17.3%.

With `Cc1ccc(NC(=O)C2CCN(S(=O)(=O)c3cc(-c4noc(C)n4)ccc3C)CC2)c(C)c1` as the molecule, how does the inhibition read?
The inhibition was -24%.

How did the inhibition turn out when `COc1cccc(-n2c(=O)c3sc4ccccc4c3n(CC(=O)Nc3ccccc3C)c2=O)c1` was run?
The inhibition was -0.789%.

For `CCCN(CCC)CCCNC(=O)c1cc2c(=O)[nH]c3ccccc3c2n1C`, which inhibition is on record?
Its inhibition is 2.45%.

For `O=C(CSc1c2c(nc3cc(Cl)ccc13)CCCC2)NCc1ccccc1Cl`, which inhibition is on record?
The inhibition was -15.6%.

For `COc1ccc(C2N3CC4(C)CN2CC(c2ccccc2)(C3)C4=O)cc1OC` (stereo not drawn), which inhibition is on record?
Its inhibition is -9.58%.

Which inhibition does the source give for `COc1ccc(C2CC(=O)c3cc(-c4nc(-c5cccc([N+](=O)[O-])c5)cs4)c(=O)n(-c4ccc(OC)cc4)c3C2)cc1` (stereo not drawn) here?
Its inhibition is 0.536%.

`CSc1ncc(C(=O)N2CCN(c3cccc(C(F)(F)F)c3)CC2)c(C)n1` was tested. Which inhibition did it give?
The inhibition was -6.24%.

With `COc1ccccc1OCC(=O)Nc1c(C(=O)c2ccc(F)cc2)oc2ccccc12` as the molecule, how does the inhibition read?
Its inhibition is 4.74%.

For `COc1cccc(OC(=O)CSc2nnc(-c3ccc4c(c3)OCO4)o2)c1`, which inhibition is on record?
The inhibition was 8.04%.

With `CC(C)CCN(C(=O)Nc1ccc(Cl)c(Cl)c1)C(C)c1cccs1` (stereo not drawn) as the molecule, how does the inhibition read?
The inhibition was -3.48%.

How did the inhibition turn out when `CCOC(=O)c1c(S(=O)(=O)NCC(=O)NCc2ccccc2)c(C)n(C)c1C` was run?
Its inhibition is 8.28%.

With `Cc1cccc(-c2nc3c4ccccc4nc(NCc4ccc(F)cc4)n3n2)c1` as the molecule, how does the inhibition read?
The inhibition was -0.0563%.

How did the inhibition turn out when `CCOC(=O)c1ccc(OC(=O)c2cn(-c3cccc(OC)c3)c(=O)c3ccccc23)cc1` was run?
The inhibition was -15%.

`C/C(=N\NC(=O)CSCc1ccc([N+](=O)[O-])cc1)c1ccccc1O` was tested. Which inhibition did it give?
The inhibition was active: 77%.

With `CCc1ccc2c(c1)NC(c1ccc(OC)cc1)=NC(c1ccncc1)=N2` as the molecule, how does the inhibition read?
The inhibition was -18.4%.

With `COc1cc(/C=C/c2nc(C#N)c(N3CCC(C)CC3)o2)cc(OC)c1OC` as the molecule, how does the inhibition read?
Its inhibition is -4.1%.

`CCC1CCCCN1C(=O)c1sc(-n2nc(C)c(Cc3ccccc3)c2C)nc1C` (stereo not drawn) was tested. Which inhibition did it give?
Its inhibition is -10.2%.

How did the inhibition turn out when `Cc1ccc(Cl)cc1NC(=O)CN1C(=O)C(C)(C)c2cc(S(=O)(=O)N3CCCCC3)ccc21` was run?
Its inhibition is 12.2%.

With `CCSc1ncc(Cl)c(C(=O)Nc2sc3c(c2C(=O)NC)CCCC3)n1` as the molecule, how does the inhibition read?
Its inhibition is -8.03%.

Which inhibition does the source give for `CC(Oc1ccccc1F)C(=O)Nc1ccc(-c2nc3ccccc3s2)cc1` (stereo not drawn) here?
The inhibition was -8.25%.

Which inhibition does the source give for `CCc1cccc(NC(=O)CN(C)S(=O)(=O)c2cccc3cccnc23)c1` here?
Its inhibition is 1.18%.

For `CC1CCc2c(sc(NC(=O)c3cc4nc(-c5ccc(Cl)cc5)cc(C(F)(F)F)n4n3)c2C#N)C1` (stereo not drawn), which inhibition is on record?
The inhibition was -4.62%.

How did the inhibition turn out when `CC(=O)c1ccc(N2CCN(C(=O)CCS(=O)(=O)c3ccc4c(c3)oc(=O)n4C)CC2)cc1` was run?
Its inhibition is -4.42%.

With `Nc1c(-c2nc(-c3ccc(F)cc3)cs2)c2ccccn2c1C(=O)c1ccc2c(c1)OCO2` as the molecule, how does the inhibition read?
The inhibition was -6.45%.
